Results taken from the supplement of paper PMC10338343.
± gives the standard deviation. This is a selection; strong and weak results do not stand in their true shares.

Each sequence was assayed on MIWI (PIWIL1) piRISC loaded with L1MC piRNA (30 nt) (assay: pre-steady-state target cleavage rate (min^-1); MIWI and MILI are mouse PIWI proteins and EfPiwi is from a freshwater sponge; tags in brackets are library labels; higher = faster piRNA-guided slicing of the target). Details: guide: L1MC piRNA 5'p-UAACUAAAUACUAUGCAAGCUGUAGGUCCU; auxiliary factor: none (no GTSF1).
Summary of the method: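 A transcribed, DNA-blocked target RNA library (0.1 nM) and 1 nM active affinity-purified piRISC bearing one synthetic guide were incubated in HEPES–potassium acetate buffer at 33 °C for 0–8 or 0–960 min, either with or without 500 nM GTSF1 partner protein. Uncleaved targets were sequenced, normalised to depth and to weakly complementary targets, and pooled over three trials, with k3 capped at 0.0001 min^-1. The pre-steady-state cleavage rate was derived with a burst-and-steady-state fit.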

Sequence | pre-steady-state target cleavage rate
UCCACCUACAGCUUGCAUAGUAUUUAGUGA | 0.0254 ± 0.006
UCCUGCUACAGCUUGCAUUCUAUUUAGUUA | 0.00933 ± 0.0034
UCCUGGAUGAGCUUGCAUAGUACUUAGUUA | 0.0355 ± 0.0099
UCCACCUACAGCUUGCAUAGUAAAUAGUUA | 0.00722 ± 0.0018
UCCUGGUACAGCUUGGAUAGUAUUUACUUA | 0.00411 ± 0.0029
UCCACGUACACCUUGCAUAGUAUUUAGUUA | 0.0578 ± 0.0093
UCCUGGAUGAGCUUGCAUAGAAUUUAGAAA | 0.00419 ± 0.0032
UCCACCAACAGCUUGCAUAGUAUUUACUUA | 0.0271 ± 0.0046
UCCACCUACAGGUUGCAUAGUAUUAAGUUA | 0.0119 ± 0.0023
AGGACCUACACCUUGCAUAGUAUUUUGUUA | 0.0627 ± 0.011
UCCUGGAUGAGCUGCAUAGUAUUUAGUUA | 0.00507 ± 0.0026
UCCACCUACAGCUUGCAUUGUAUUUAGAUA | 0.00762 ± 0.002
UCCUGGAUGUGCUUGCAUAGUAAUUAGUUA | 0.0162 ± 0.0045
UGGACCUACAGCUUGCAUUGUAAUUAGUUA | 0.0125 ± 0.0045
UCCUGGAUCAGCUUGCAUAGUUUUUAGUUA | 0.0393 ± 0.01
UCCUGGAACAGCUUGCAAAGUAUUUAGAAA | 0.00744 ± 0.0026
UCCUCCUAGUCCUUGCAUAGUAUUUAGUAA | 0.00608 ± 0.0013
UCCUGGAUGUCGUUGCAUAGUAUUUAGUUUA | 0.00499 ± 0.003
UCCACCUCAGCUUGCAUAGUAUUUAGUUA | 0.0436 ± 0.0088
UCCUGGUACAGGUUGCAUUGUAUUUAGUUA | 0.0136 ± 0.004

Sequence | pre-steady-state target cleavage rate
UCCAGCUACAGCUUGCAUAGUAUUUACUUA | 0.0264 ± 0.0037
AGGACCUAGAGCUUGCAUAGUAUUUAGAAA | 0.0106 ± 0.0033
AGGACCUACACCUUGCAUAGAAUUUAGUUA | 0.0182 ± 0.0059
UGGACCUACUGCUUGCAUAGUAUUAAGUUA | 0.0293 ± 0.0056
UCCGCCUACAGCUUGCAUAGUAUUUAGUUA | 0.0714 ± 0.011
UCCUGCUUGAGCUUGCAUAGUAUUUAGAAA | 0.00476 ± 0.0032
AGGUCCUACAGGUUGCAUAGUAUUUAGUUA | 0.052 ± 0.011
UCCUGGUAGAGCUUGCAUAGUAUUUAGAUA | 0.0153 ± 0.0049
UCCUGGUACAGCUUGGAUAGAAUUUAGUUA | 0.0109 ± 0.0034
UCCUGGAUCAGCUUGCAUAGUUUAUAGUUA | 0.0095 ± 0.0025
UCCUGGAUGUGCUUGCAUAGAAUUUACUUA | 0.00436 ± 0.0029
AGGACCUACAGCUUGCAAAGUAUUUAGUAA | 0.0251 ± 0.0052
UGGACCUAGAGCUUGCAUACUAUUUAGUUA | 0.0236 ± 0.006
UCCUGGAUGAGCUUGCAUUGUAUUUAGUAA | 0.0102 ± 0.0038
UCCUGGAUGUGCUUGCAUAGCAUUUAGUUA | 0.0145 ± 0.0039
UCCUGGUAGAGCUAGCAUAGUAUUUAGUUA | 0.0102 ± 0.0035
UCCUGGAUGUGCAUGCAUAGUAUUUAGUUA | 0.00793 ± 0.0025
UCCUGCUACAGCAUGCAUAGUAUAUAGUUA | 0.00874 ± 0.0032
UCCUGGUAGUCCUUGCAUAGUAUUUAGUAA | 0.0044 ± 0.0023
UCCUGGAUCAGGUUGCAUAGUAUUUAGUUA | 0.00786 ± 0.0024
